Results published in the BET-seq Pho4 binding data (Le et al. 2018).
Some of the results follow. These are noisy estimates, calculated here from bound and input reads.

molecular target: T1, Pho4 (S. cerevisiae) (UniProt P07270); test: relative binding free energy (BET-seq); higher = weaker binding; conditions: reference: library average
T1 sequence: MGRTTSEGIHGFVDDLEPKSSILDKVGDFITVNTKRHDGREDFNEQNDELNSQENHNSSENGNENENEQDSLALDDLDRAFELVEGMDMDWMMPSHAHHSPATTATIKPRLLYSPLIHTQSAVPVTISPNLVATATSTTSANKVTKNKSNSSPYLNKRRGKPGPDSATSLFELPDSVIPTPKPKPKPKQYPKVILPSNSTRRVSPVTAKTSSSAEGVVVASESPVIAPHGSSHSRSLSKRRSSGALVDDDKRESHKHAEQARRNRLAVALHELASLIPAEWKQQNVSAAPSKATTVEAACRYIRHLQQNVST

Sequence | relative binding free energy [kcal/mol]
GTGTGCACGTGCATGC | -0.09
TAAGTCACGTGGAGAG | 0.24
ATTATCACGTGGGCAT | -0.12
GCCAGCACGTGTGGGG | 0
GTTTGCACGTGGGAAC | 0.01
AGAGACACGTGAAGGG | 0.26
ATTGACACGTGAGTCG | 0.37
TTTGTCACGTGGTTAG | 0.16
TATTTCACGTGATTGG | 0.46
TTGTACACGTGCTGAG | 0.02
GTGAGCACGTGTCTTT | -0.04
ATCTTCACGTGGCGGG | 0.35
CTGGTCACGTGGGCTG | -0.1
GCTTGCACGTGGTTTG | -0.14
AGCCGCACGTGGGGTT | -0.12
TATTTCACGTGTCTGT | 0.2
AAGTGCACGTGAGGAC | 0.23
AAGTACACGTGGAGGA | 0.13
ATTGGCACGTGCTGGT | -0.29
TTCGTCACGTGGGTGG | 0.01
GAGGGCACGTGGAAGA | -0.05
GCGGTCACGTGATGGA | 0.24
ATTGTCACGTGAACGT | 0.28
TTCAACACGTGCGGGG | 0.07
AGGGACACGTGGCGGT | -0.07
GTGGTCACGTGATTTT | 0.26

Sequence | relative binding free energy [kcal/mol]
TGAATCACGTGGTAGT | 0.16
GTGGGCACGTGGCTCT | -0.06
GGGCTCACGTGTATTA | 0.33
GGTATCACGTGGCTTA | 0.1
GTCTGCACGTGAAGGT | 0.28
GGTAGCACGTGAGTAG | 0.2
ATTGACACGTGGGTAT | -0.05
GGAAACACGTGGTTGA | 0.03
TAGGACACGTGCGTTT | 0.1
TGTAGCACGTGCGGCT | -0.17
TCCGGCACGTGGGGGA | -0.2
CTTGGCACGTGTTGAT | -0.07
CGTTGCACGTGGAAGG | 0.02
CGGTACACGTGTAATG | 0.37
AGTGCCACGTGTGTGG | -0.11
TTGATCACGTGTCATT | 0.12
TGAATCACGTGTAAAG | 0.26
TATTACACGTGGCAGT | 0.01
TGGTTCACGTGATCTG | 0.24
AAGGTCACGTGTTGAG | 0.13
TAGAGCACGTGAGATT | 0.31
AACAACACGTGGTGTG | 0
TGTTGCACGTGGCGGC | -0.07
AGTGGCACGTGCGCGG | -0.27
TTCATCACGTGTGAGG | 0.15
ATTGTCACGTGTTTAA | 0.13

Sequence | relative binding free energy [kcal/mol]
GATATCACGTGGGTAA | 0.13
GGAAGCACGTGGAGGA | -0.16
CAGGTCACGTGGTGCG | 0
TTAAGCACGTGTGAGG | -0.01
AGTTACACGTGCTTGG | 0.19
TGGGTCACGTGTTTTA | 0.17
TTAGTCACGTGTGCAT | 0.12
CTTGGCACGTGAGCGT | -0.15
CAAGTCACGTGGGGTA | -0.1
GGCTGCACGTGTTGCT | 0.04
TTACGCACGTGGTTGT | -0.24
ACTGTCACGTGGATGG | 0.02
TGGTTCACGTGTTGGC | 0.37
TTTGTCACGTGTATGC | 0.08
CTTTACACGTGGTAGG | -0.05
AATATCACGTGATATG | 0.35
TCCGTCACGTGAGGGG | 0.29
CTGTGCACGTGTCGGA | 0.06
GCTTGCACGTGGTCGT | -0.06
GGATGCACGTGTAGGA | -0.14
TCTTTCACGTGTGTAG | 0.21
AATTACACGTGCGGGG | 0.07
TGCGACACGTGGTTTG | -0.12
TTGCGCACGTGATGTG | -0.08
AAGAGCACGTGGTAGG | -0.25
TCATTCACGTGGATTT | 0.33

Sequence | relative binding free energy [kcal/mol]
GTATTCACGTGTACGT | 0.22
AGTATCACGTGATCTT | 0.26
CGGATCACGTGGTATT | 0.11
CTGGGCACGTGTTATT | -0.08
TTGGCCACGTGTTTGG | 0.02
ATTCTCACGTGGGAGT | 0.04
GTGTCCACGTGGGCGT | -0.23
TATTACACGTGGATAT | 0.03
GTCAGCACGTGGAGGG | -0.14
TAGTACACGTGTTGCA | 0.12
TTGACCACGTGGTGAG | -0.13
ATGGTCACGTGGTTAA | -0.06
TAGTGCACGTGACGGG | 0.17
TTGGTCACGTGGAACG | 0.11
GGATTCACGTGGGAAG | 0.25
TGGGCCACGTGTTGGC | -0.13
TATATCACGTGGTTAG | 0.06
TTATACACGTGTTTTT | 0.1
CGAGTCACGTGATAGG | 0.08
GTGCTCACGTGGCTTT | 0.26
CTTTACACGTGGTTGC | 0.15
GTGAACACGTGGGCTG | -0.12
TGCGTCACGTGAGGTT | 0.3
GGTCGCACGTGGCGAT | 0
ATGGCCACGTGAGGGC | 0.09
TCGTGCACGTGGTTTA | -0.08

Sequence | relative binding free energy [kcal/mol]
GGTGCCACGTGGAGGG | -0.05
AGGGACACGTGGGGCG | -0.03
TGTGTCACGTGGACTT | 0.05
TGTGGCACGTGGACTA | -0.1
GTTGCCACGTGTAGTG | -0.03
AGTTTCACGTGAATCG | 0.33
TGAGCCACGTGTGTTT | 0.06
AGGGGCACGTGCGTAG | -0.15
GGGTCCACGTGGTAGC | 0.09
TTTGGCACGTGGTAAT | -0.07
GGGGCCACGTGAGAGT | 0.19
ATGGGCACGTGTAAAT | 0.08
ATAAACACGTGGAAGT | 0.09
TTTCACACGTGTGTTC | 0.11
AGGGGCACGTGGACAG | -0.19
GTGGACACGTGGTTCT | 0.02
TATTTCACGTGATCTT | 0.16
ATTTGCACGTGAGGAT | 0.18
CTGGACACGTGCGGGT | -0.05
GTGAGCACGTGTGTAG | -0.04
TTAATCACGTGTTTTA | 0.07
CGTTGCACGTGTTGAT | 0.06
TTTGCCACGTGGGATA | -0.19
AGAGACACGTGTATTG | 0.02
ATTGGCACGTGCAGTG | -0.21
TTACGCACGTGTTGTG | -0.17

Sequence | relative binding free energy [kcal/mol]
TAGGACACGTGGAGGT | 0.03
TTATACACGTGGTCAG | -0.03
GGTAACACGTGGTATA | -0.11
GTGAACACGTGTCGGG | 0.03
ATCTTCACGTGGTAGA | 0.37
AGGTGCACGTGGTGAC | -0.24
GCTGTCACGTGTTAGG | 0.07
ATGGACACGTGGTTGG | 0.04
GTAGTCACGTGAAGGG | 0.31
TATTTCACGTGTTTCA | 0.18
CAGTTCACGTGGTGTT | 0.23
CTGATCACGTGTGTTT | 0.15
TTTTCCACGTGGTTTG | 0
AGTGCCACGTGTAAGG | 0.01
GTGGGCACGTGTGTAA | -0.08
TTCATCACGTGTAGGA | 0.19
AAACTCACGTGGGGTG | 0.05
TGTTGCACGTGCGTCG | -0.1
AGTCGCACGTGGGATG | -0.17
TGTAGCACGTGCGAGT | -0.02
GGCGTCACGTGTATGC | 0.22
CGTTTCACGTGATTGT | 0.33
ATTAGCACGTGTATTA | -0.15
GGTGACACGTGTGTGC | 0.08
TGGGACACGTGTTCAT | 0.03
AGGGTCACGTGATAAG | 0.11

Sequence | relative binding free energy [kcal/mol]
ATTGGCACGTGGATGT | -0.1
AGGTGCACGTGAACGT | 0.29
TTCGGCACGTGAGATG | 0.13
TGCTTCACGTGTAAGT | 0.18
CGGATCACGTGGAGGG | 0.29
GCGGTCACGTGGGTTT | -0.07
CCTGTCACGTGGGTGT | -0.21
ATTTGCACGTGTCTGT | 0.02
GGCTGCACGTGTTCGG | 0.07
TATCTCACGTGGTTGT | 0.08
AGCTGCACGTGGGGTT | -0.23
AGTACCACGTGGGCGG | -0.29
ATTTACACGTGCTGTT | -0.01
GGTTCCACGTGTCTGT | 0.12
TTGAGCACGTGATTTG | 0.08
TATTTCACGTGGTTGG | 0.31
ATTGTCACGTGGGAGG | 0.03
TTTTTCACGTGTTAAG | 0.29
ATTCCCACGTGGGGGG | -0.29
CCGTGCACGTGGGAGG | -0.01
TTTTTCACGTGCCATT | 0.23
CAGGACACGTGATTGT | 0.18
TTGTACACGTGGCAAT | 0
CTCGTCACGTGGATGT | 0.01
TTTGTCACGTGCGTTC | 0.19
GAGGTCACGTGGGGGG | 0.07

Sequence | relative binding free energy [kcal/mol]
CATGGCACGTGCTGTT | -0.2
CGATTCACGTGTATTG | 0.16
GGGCACACGTGGTGGT | 0.03
GGTTCCACGTGGAGTG | -0.13
GAATGCACGTGTTGTC | 0.12
CATTGCACGTGTTTTA | 0.05
GCGTTCACGTGTGTCG | 0.3
AGTGTCACGTGCCGTT | -0.09
GTAATCACGTGTGCGG | 0.16
AGGCCCACGTGGGATG | -0.15
TATTGCACGTGTACAG | -0.08
TGATGCACGTGCGAGG | -0.1
GGCGTCACGTGGGTGT | -0.01
AGTGCCACGTGGGAGT | -0.25
ATTTTCACGTGCATTG | 0.29
GGTGCCACGTGGTGTC | -0.16
ATTAACACGTGGGTAA | -0.18
GCTAGCACGTGAGGTT | 0.2
TCCGTCACGTGGTTGG | -0.01
GATGTCACGTGATATT | 0.26
ATTGTCACGTGAAGGT | 0.24
TAGTGCACGTGGGCAG | -0.22
GGCTGCACGTGCTGGT | -0.02
TGTCACACGTGCGGTT | 0.08
GGGTGCACGTGGCGCT | -0.23
TATTGCACGTGGTGCG | -0.09

Sequence | relative binding free energy [kcal/mol]
TTACGCACGTGTGTGG | -0.11
GGATTCACGTGTGCGC | 0.3
TTAAGCACGTGTGCGT | 0.06
TTGAACACGTGCTAGG | 0.04
AATAGCACGTGGTGCG | -0.11
TGAGTCACGTGGTAAT | 0.18
TCTAGCACGTGGTATG | -0.21
AGGAGCACGTGTGGGG | -0.03
ATGGGCACGTGGCTTA | -0.16
CTTGGCACGTGGATTA | -0.07
CTAAGCACGTGATGGG | 0.09
AGTTGCACGTGATTGT | 0.13
TGAGGCACGTGCATGG | -0.27
TTTTACACGTGTTTTC | 0.09
TATTACACGTGATAGG | 0.18
TATAGCACGTGGGCGT | -0.14
TATATCACGTGTGGTT | 0.23
TCTTTCACGTGTCGGT | 0.26
CGATTCACGTGTTAGT | 0.23
TAAAGCACGTGGCTGG | -0.21
GATGTCACGTGGGGCA | -0.14
CTTGGCACGTGTTTAA | 0.03
